Measured values as given in the supplement of paper PMC11417369.
Some of the results follow.

Tested on: PfAP2-HC AP2 domain (GST-tagged)
Assay: gcPBM binding intensity (ln(normalized median fluorescence intensity)); higher = stronger DNA binding
In short: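 The binding buffer was 1× PBS containing 1% milk, 0.2 mg/ml BSA, 0.5% salmon testes DNA and 0.03% Triton X-100. In it, GST-tagged P. falciparum DNA-binding domains expressed in E. coli were applied for 1 h to an Agilent 4 × 180k array of primer-extended double-stranded 36-bp intergenic genomic probes plus negative controls. Binding intensity, read with Alexa488 anti-GST antibody and a 488 nm scan, is the highest Masliner-normalised natural-log median intensity across replicate spots of either probe orientation.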

Compared with “TATGTCCATATTTCCACACACATATTATTTTTATAT [CACACA_site3798]”, “TATTAAAAAATTATATGTACACATTTGTTATATACA [XGTACX_site2232]” is lower in “gcPBM binding intensity (ln)” value: 10 for the first, 9.56 for the second.

Compared with “ATAAAAAAATAAATAACACACAAAATTACACGAAAA [CACACA_site3620]”, “TTCTTTATATATGTTCGTACATATTATTATAATACA [XGTACX_site1549]” is lower in “gcPBM binding intensity (ln)” value: 10.1 for the first, 9.8 for the second.

Compared with “TAATTTTCATGTTCATGTACTTAAATATAAGGTAAA [XGTACX_site3284]”, “TGCCTTATTAAAAGAATTACACATATTTAATCGAAA [GTGCAC_negctrl_site153]” is higher in “gcPBM binding intensity (ln)” value: 9.35 for the first, 9.39 for the second.

Going from “ATTCATAACAAAAAAAGTACTCAAAATAATAATAAA [XGTACX_site6079]” to AGTAATTATTTTAGAGTGCATAGTTTTTTAATAAAT, the “gcPBM binding intensity (ln)” value falls from 9.6 to 9.46.

First: AAATATATTTTTAATAGTACAATATGAAAATTTCAT [XGTACX_site2562]
Second: AAAAAAAAGGAAATAACACACATGTATATATTTATA [CACACA_site1606]
The “gcPBM binding intensity (ln)” value of the first is lower: 9.47 for the first, 9.84 for the second.

First: CACCATGTTAACAATACATGCATCACTATATAAATG [TGCATGCA_site36]
Second: GTACACATATATATATATATATATATATATATATAT [CACACA_negctrl_site800]
The “gcPBM binding intensity (ln)” value of the first is lower: 9.72 for the first, 9.87 for the second.

First: TTTTTTTTTTTTTTTTGTACTCATACATACTATTAT [XGTACX_site989]
Second: TTTTTATTATTTTAAAGTACTCTTTAGTAATTCCCT [XGTACX_site5863]
The “gcPBM binding intensity (ln)” value of the first is lower: 9.39 for the first, 9.51 for the second.

Going from “CACAGATAAATTAACACACACACACCGATATATATA [CACACA_site6049]” to “AAAAAACATACATACACACACATAAATATTTATATT [CACACA_site7300]”, the “gcPBM binding intensity (ln)” value rises from 10.5 to 10.8.

Going from “TTTTATTAATATTGCATGCACACTATATAATAATTG [CACACA_site1049]” to “CGGAAAAATTAAAGCACACAAAAAAAAATAAAAAAA [CACACA_site1133]”, the “gcPBM binding intensity (ln)” value rises from 9.93 to 10.1.

Going from “AATATTTCTTTAATTTGTACATATAAGGGAAAATAA [XGTACX_site6221]” to “ATTTCTTCTTTTTTTGTGAAACTGGAATATATATAT [XGTACX_negctrl_site527]”, the “gcPBM binding intensity (ln)” value falls from 9.48 to 9.47.

Compared with “CTTAGGTGTTCATAGAGTACAAATAAAAAAATAAGA [XGTACX_site2294]”, “ATATATATTTTAATAACACACATATATTATATTATA [CACACA_site4387]” is lower in “gcPBM binding intensity (ln)” value: 9.67 for the first, 9.6 for the second.

First: TCATTCTAAATATAAACACACATAAATAAATACATT [CACACA_site5788]
Second: GGTGGTGGTGGGTGGGTGCTTCTATTATTATATTAT [GTGCAC_site9391]
The “gcPBM binding intensity (ln)” value of the first is lower: 9.83 for the first, 10.4 for the second.

Going from GATGTTTCTATTTTAGTGCATTTTAAATAAATAAAT to “ACGTTACATACATATACACACACATATATATATATA [CACACA_site8203]”, the “gcPBM binding intensity (ln)” value rises from 9.49 to 10.3.

Going from “TATATATATTATTATGCATGTAATAAAACAAATAAT [TGCATGCA_site625]” to “TATATTAAACCATGTAGTACCTTGAATAAATATTAT [XGTACX_site8254]”, the “gcPBM binding intensity (ln)” value falls from 9.66 to 9.51.

First: ATTATACCACCCGATATACACACTTGTAGACATCTT [CACACA_site7944]
Second: AAAAAAAAATACATATGTACTTATGTATAATGTTGT [XGTACX_site8104]
The “gcPBM binding intensity (ln)” value of the first is higher: 9.83 for the first, 9.81 for the second.

Compared with “TTTTTTTAATTAGTTTGTACATATTGTTATAATATA [XGTACX_site6294]”, “CATGTTATGATTCCATGTACTTATAGCATTAAAAAA [XGTACX_site8939]” is lower in “gcPBM binding intensity (ln)” value: 9.66 for the first, 9.28 for the second.

Compared with “AAGTTACAAAATCAAAAGGAAAAAATATAAAATAAT [CACACA_negctrl_site561]”, “CAAGAAAATTGACACACACACATATTTATATTTATA [CACACA_site7766]” is higher in “gcPBM binding intensity (ln)” value: 9.69 for the first, 10.6 for the second.

“AACATATATATATATACATGCATATGAACAACGAAT [TGCATGCA_site93]” and “TATAAAAATGTTTACACACACACATAAATATATTTT [CACACA_site2512]” are the same in “gcPBM binding intensity (ln)” value: 10.2 for the first, 10.2 for the second.

First: TTTTTTTTTTTTCTGAGTACGAAAAATAGAGATAGA [XGTACX_site3825]
Second: TGTATAAATATAATCACACATATATATATATATATA [CACACA_site4365]
The “gcPBM binding intensity (ln)” value of the first is lower: 9.14 for the first, 9.55 for the second.

First: ATCACATATATATATAATATATATATGTATATATTT [GTGCAC_negctrl_site249]
Second: ATATATATATATATATGTACATATATTTTTATTTAT [XGTACX_site3508]
The “gcPBM binding intensity (ln)” value of the first is lower: 9.6 for the first, 9.7 for the second.

First: AAAAAAAATATATATGCACACACAAAAAAACAAATT [CACACA_site8349]
Second: CAACTAATATTAAAACGTACATAAATATTTAACAGA [XGTACX_site625]
The “gcPBM binding intensity (ln)” value of the first is higher: 10.2 for the first, 9.78 for the second.

First: TATACCTTTTTATTCACACATATATGTCATATGTCA [CACACA_site5423]
Second: TTAATTACATGTAATTGTACTTAATTATAAGACATT [XGTACX_site464]
The “gcPBM binding intensity (ln)” value of the first is higher: 10.2 for the first, 9.52 for the second.

With “TATTACTTATAAATTACACACAAATGATTGAACATT [CACACA_site2259]” the “gcPBM binding intensity (ln)” value was 9.69.
